Paper PMC7062751 (Nature Communications, 2020)

Target: T1, GFP-tagged TEX264, wild type (UniProt Q9Y6I9 1-313)
T1 construct: TEX264, wild type; also called GFP-tagged WT TEX264; source: ΔTEX264 HEK293, transiently transfected, captured on GFP trap beads and washed
T1 sequence (looked up): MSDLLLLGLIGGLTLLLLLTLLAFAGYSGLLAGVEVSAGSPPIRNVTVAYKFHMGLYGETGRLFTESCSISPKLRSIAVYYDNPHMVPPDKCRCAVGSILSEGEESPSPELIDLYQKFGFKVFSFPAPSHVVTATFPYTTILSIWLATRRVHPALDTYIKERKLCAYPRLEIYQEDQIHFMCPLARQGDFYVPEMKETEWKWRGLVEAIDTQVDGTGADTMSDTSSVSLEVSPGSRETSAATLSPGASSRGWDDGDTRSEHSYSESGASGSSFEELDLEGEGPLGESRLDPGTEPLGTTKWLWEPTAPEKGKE
Test: pull-down; GFP- or FLAG-tagged TEX264 variants captured from ΔTEX264 HEK293 lysate (500 mM NaCl, 3% Triton X-100) on GFP trap or anti-FLAG beads, washed, incubated with 1 μg free SUMO1 or SUMO2 for 90 min at 4 °C
Details: both partners purified

B1: free SUMO1 (natural protein)
chain: not shown
notes: SUMO1, free (not conjugated); source: bought: Boston Biochem
binding result: binds
